Data: the supplement of paper PMC8728848
The list shows a part of the results.

Assays:
Assay in all cases: glycan array binding signal (z-score within array); higher = stronger binding
Details in all cases: glycan notation: IUPAC condensed, linker removed; mutation: D151N
[1] = target: Gal(b1-4)GlcNAc(b1-2)Man(a1-3)[Gal(b1-4)GlcNAc(b1-2)Man(a1-6)]Man(b1-4)GlcNAc(b1-4)GlcNAc
In short: (§1)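 Glycan array binding is given as a within-array Z-score, which can be read as non-binding when negative. The arrays, 3228 of them, came from the Consortium for Functional Glycomics database and were retained only where the protein sequence was available. Z-scores were averaged across arrays of the same protein sequence at different concentrations or buffers and across linkers.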

[2] = target: Gal(b1-4)GlcNAc(b1-2)Man(a1-3)[Gal(b1-4)GlcNAc(b1-2)Man(a1-6)]Man(b1-4)GlcNAc(b1-4)[Fuc(a1-6)]GlcNAc
In short: as §1

[3] = target: Gal(b1-4)GlcNAc(b1-2)Man(a1-3)[Gal(b1-4)GlcNAc(b1-2)Man(a1-6)][GlcNAc(b1-4)]Man(b1-4)GlcNAc(b1-4)[Fuc(a1-6)]GlcNAc
In short: as §1

[4] = target: Gal(b1-4)GlcNAc(b1-2)Man(a1-3)[Man(a1-6)]Man(b1-4)GlcNAc(b1-4)GlcNAc
In short: as §1

[5] = target: Gal(b1-4)GlcNAc(b1-2)Man(a1-6)[GlcNAc(b1-2)Man(a1-3)]Man(b1-4)GlcNAc(b1-4)[Fuc(a1-6)]GlcNAc
In short: as §1

[6] = target: Gal(b1-4)GlcNAc(b1-2)Man(a1-6)[Man(a1-3)]Man(b1-4)GlcNAc(b1-4)GlcNAc
In short: as §1

[7] = target: Gal(b1-4)GlcNAc(b1-2)Man(a1-6)[Man(a1-3)]Man(b1-4)GlcNAc(b1-4)[Fuc(a1-6)]GlcNAc
In short: as §1

[8] = target: Gal(b1-4)GlcNAc(b1-2)[Gal(b1-4)GlcNAc(b1-4)]Man(a1-3)[Fuc(a1-3)[Gal(b1-4)]GlcNAc(b1-2)Man(a1-6)]Man(b1-4)GlcNAc(b1-4)GlcNAc
In short: as §1

[9] = target: Gal(b1-4)GlcNAc(b1-2)[Gal(b1-4)GlcNAc(b1-4)]Man(a1-3)[Gal(b1-4)GlcNAc(b1-2)[Gal(b1-4)GlcNAc(b1-6)]Man(a1-6)]Man(b1-4)GlcNAc(b1-4)GlcNAc
In short: as §1

[10] = target: Glc(a1-2)Glc(a1-3)Glc(a1-3)Man(a1-2)Man(a1-2)Man(a1-3)[Man(a1-2)Man(a1-3)[Man(a1-2)Man(a1-6)]Man(a1-6)]Man(b1-4)GlcNAc
In short: as §1

[11] = target: Glc(a1-2)Glc(a1-3)Glc(a1-3)Man(a1-2)Man(a1-2)Man(a1-3)[Man(a1-3)[Man(a1-6)]Man(a1-6)]Man(b1-4)GlcNAc
In short: as §1

[12] = target: Glc(a1-3)Glc(a1-3)Man(a1-2)Man(a1-2)Man(a1-3)[Man(a1-2)Man(a1-3)[Man(a1-2)Man(a1-6)]Man(a1-6)]Man(b1-4)GlcNAc(b1-4)GlcNAc
In short: as §1

[13] = target: Glc(a1-3)Glc(a1-3)Man(a1-2)Man(a1-2)Man(a1-3)[Man(a1-3)[Man(a1-6)]Man(a1-6)]Man(b1-4)GlcNAc
In short: as §1

[14] = target: Glc(a1-3)Man(a1-2)Man(a1-2)Man(a1-3)[Man(a1-2)Man(a1-3)[Man(a1-2)Man(a1-6)]Man(a1-6)]Man(b1-4)GlcNAc(b1-4)GlcNAc
In short: as §1

[15] = target: Glc(a1-6)Glc(a1-6)Glc(a1-6)Glc(a1-6)Glc(a1-6)Glc
In short: as §1

[16] = target: Glc(b1-3)Glc(b1-3)Glc(b1-3)Glc(b1-3)Glc(b1-3)Glc
In short: as §1

[17] = target: Glc(b1-6)Glc(b1-6)Glc(b1-6)Glc(b1-6)Glc(b1-6)Glc
In short: as §1

[18] = target: GlcA(b1-3)GlcNAc(b1-4)GlcA(b1-3)GlcNAc(b1-4)GlcA(b1-3)GlcNAc(b1-4)GlcA(b1-3)GlcNAc(b1-4)GlcA(b1-3)GlcNAc(b1-4)GlcA(b1-3)GlcNAc(b1-4)GlcA(b1-3)GlcNAc(b1-4)GlcA(b1-3)GlcNAc
In short: as §1

[19] = target: GlcNAc(b1-2)Man(a1-3)[GlcNAc(b1-2)Man(a1-6)]Man(b1-4)GlcNAc(b1-4)GlcNAc
In short: as §1

[20] = target: GlcNAc(b1-2)Man(a1-3)[GlcNAc(b1-2)Man(a1-6)]Man(b1-4)GlcNAc(b1-4)[Fuc(a1-6)]GlcNAc
In short: as §1

[21] = target: GlcNAc(b1-2)Man(a1-3)[GlcNAc(b1-2)Man(a1-6)][GlcNAc(b1-4)]Man(b1-4)GlcNAc(b1-4)GlcNAc
In short: as §1

[22] = target: GlcNAc(b1-2)Man(a1-3)[Man(a1-3)[Man(a1-6)]Man(a1-6)][GlcNAc(b1-4)]Man(b1-4)GlcNAc(b1-4)GlcNAc
In short: as §1

[23] = target: GlcNAc(b1-2)[GlcNAc(b1-4)]Man(a1-3)[GlcNAc(b1-2)Man(a1-6)][GlcNAc(b1-4)]Man(b1-4)GlcNAc(b1-4)GlcNAc
In short: as §1

[24] = target: GlcNAc(b1-2)[GlcNAc(b1-4)]Man(a1-3)[GlcNAc(b1-2)[GlcNAc(b1-4)][GlcNAc(b1-6)]Man(a1-6)][GlcNAc(b1-4)]Man(b1-4)GlcNAc(b1-4)GlcNAc
In short: as §1

[25] = target: GlcNAc(b1-2)[GlcNAc(b1-4)]Man(a1-3)[GlcNAc(b1-2)[GlcNAc(b1-6)]Man(a1-6)]Man(b1-4)GlcNAc(b1-4)GlcNAc
In short: as §1

B1: ZG16p (Homo sapiens), O60844 (protein)
chain: ARSSSYSGEYGGGGGKRFSHSGNQLDGPITALRVRVNTYYIVGLQVRYGKVWSDYVGGRNGDLEEIFLHPGESVIQVSGKYKWYLKKLLFVTDKGRYLSFGKDSGTSFNAVPLHPNTVLRFISGRSGSLINAIGLHWDVYPSSCSRC
With B1 the “glycan array binding signal (z-score)” value [1] was -0.561, the “glycan array binding signal (z-score)” value [2] was 0.636 and the “glycan array binding signal (z-score)” value [3] was -0.565. For the same binder, the “glycan array binding signal (z-score)” value [4] was -0.565, the “glycan array binding signal (z-score)” value [5] was -0.565 and the “glycan array binding signal (z-score)” value [6] was -0.565. The “glycan array binding signal (z-score)” value [7] was -0.194, the “glycan array binding signal (z-score)” value [8] was -0.545 and the “glycan array binding signal (z-score)” value [9] was -0.44. For the same binder, the “glycan array binding signal (z-score)” value [10] was 0.042, the “glycan array binding signal (z-score)” value [11] was 0.09 and the “glycan array binding signal (z-score)” value [12] was 1.79. The “glycan array binding signal (z-score)” value [13] was 1.04, the “glycan array binding signal (z-score)” value [14] was -0.368 and the “glycan array binding signal (z-score)” value [15] was 2.29. For the same binder, the “glycan array binding signal (z-score)” value [16] was 0.696, the “glycan array binding signal (z-score)” value [17] was 0.764 and the “glycan array binding signal (z-score)” value [18] was 2.37. For the same binder, the “glycan array binding signal (z-score)” value [19] was -0.565, the “glycan array binding signal (z-score)” value [20] was -0.565 and the “glycan array binding signal (z-score)” value [21] was -0.565. The “glycan array binding signal (z-score)” value [22] was -0.565, the “glycan array binding signal (z-score)” value [23] was -0.565 and the “glycan array binding signal (z-score)” value [24] was -0.299. The “glycan array binding signal (z-score)” value [25] was -0.552.
